Source: PubChem BioAssay AID1347071 (National Center for Advancing Translational Sciences (NCATS), 2019)
Hit rate of the full screen: of about 410,000 compounds, about 260 (0.063%) were called active. Inconclusive results, whose numbers are uncertain, are shown with a selection of clear calls. Calls come from the whole dose curve; as a rule, active = well fitted activation curve with a large enough effect; inconclusive = small, poorly fitted or top-dose-only effect; inactive = no such curve, though single readings can be large or run the other way. Potencies of inconclusive entries are left out as doubtful fits.

assay: qHTS for compounds that reverse cellular toxicity of Amyloid beta (A-beta) peptide in yeast: Primary Screen; details: yeast expressing A-beta42, growth rescue, OD600, 48 h; growth rescue: at 46.1 µM (top of the series), 0% DMSO, 100% iron-clioquinol control; note: nearly all actives have a fitted effect of over 55% in size
Procedure, shortened: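 Yeast A-beta toxicity model in growth medium with pinned compounds, 48 h at 30 C; growth read as absorbance at 600 nm. Normalized to FeCl3/clioquinol equimolar mix (positive) and DMSO (negative).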
Potency is the fitted concentration of half-maximal effect; tags give direction and shape of the fitted curve.

SMILES | Potency | growth rescue
CN(CC(=O)Nc1cccc(F)c1)C(=O)c1ccc(C(=O)c2ccccc2)cc1 | inconclusive [activator, partial curve, poor fit] | 
CC(=O)C1=C(C)NC(SCC(=O)c2ccc(Cl)c(Cl)c2)=C(C#N)C1c1ccco1 (stereo not given) | inactive | 
CCOCCOC(=O)c1ccc(NC(=O)C2COc3ccccc3O2)cc1 (stereo not given) | inconclusive [activator, single point] | 
Cc1[nH]c2c(C)cccc2c1CCNS(=O)(=O)c1cccc([N+](=O)[O-])c1 | inconclusive [activator, single point] | 
Cc1ccc(S(=O)(=O)CCc2nnc(NC(=O)c3ccccn3)s2)cc1 | inconclusive [activator, partial curve, poor fit] | 
Cc1ccc(NC(=S)N(Cc2ccccc2)C(C)C)cc1 | inconclusive [activator, single point] | 
O=c1[nH][nH]c2c1C(c1ccc(F)cc1)OC(CCc1ccccc1)C2 (stereo not given) | inactive | 
N#C/C(=C\c1ccc(F)c(Br)c1)C(=O)NC1CC1 | inconclusive [activator, partial curve, poor fit] | 
COCCNC(=O)c1ccc(-n2c(-c3ccccc3)cc3c2CCCCC3)cc1 | inactive | 
Cc1csc(Nc2ccc(Cl)cc2)n1 | inconclusive [activator, single point] | 
CNC(=S)/N=C(/Nc1ccccc1)c1ccccc1 | inconclusive [activator, partial curve, poor fit] | 
Cc1ccccc1NC(=O)c1ccc2c(c1)C(=O)N(CC(C)C)C2=O | inconclusive [activator, full curve, poor fit] | 
CN(Cc1ccccc1)C(=O)CSc1nc2ccsc2c(=O)n1-c1ccc(F)cc1 | inactive | 
CN(C)/C=N/C(=S)Nc1ccc(Cl)cc1Cl | inconclusive [activator, single point] | 
Cc1cc(NC(=O)COC(=O)c2ccccc2O)no1 | inactive | 
Cc1cc(C)cc(NC(=O)Nc2ccc3c(c2)N(C)C(=O)CS3)c1 | inactive | 
COc1ccc(NC(=O)N(C)C[C@H]2Oc3c(NC(=O)Nc4ccc(C(F)(F)F)cc4)cccc3C(=O)N([C@H](C)CO)C[C@@H]2C)cc1 | inactive | 
O=S(=O)(c1ccccc1F)N1CCC(Oc2ccc(-n3cnnn3)cc2)CC1 | inconclusive [activator, single point] | 
O=c1[nH]n(-c2ccccc2)c(=O)c(Cl)c1Cl | inconclusive [activator, full curve, poor fit] | 
Cc1ccc(S(=O)(=O)N2CCN(C(=O)CSC(=S)N3CCCC3)CC2)c(C)c1 | inconclusive [activator, single point] | 
CC1=NN(C(N)=S)C(=O)C1N=Nc1cccc(C)c1 (stereo not given) | inconclusive [activator, full curve] | 
Nc1cc(=O)nc(SCC(=O)N2CCN(c3ccccc3)CC2)n1-c1ccc(F)cc1 | inconclusive [activator, single point] | 
Oc1ccc(/C=N/Nc2ccc(C(F)(F)F)cn2)cc1 | inconclusive [activator, single point] | 
CCNC(=O)c1ccc(=O)n(Cc2ccc(Cl)cc2Cl)c1 | inconclusive [activator, single point] | 

SMILES | Potency | growth rescue
CC(C)(O)c1[nH]c2cc(C(F)(F)F)ccc2c1C(C)(C)O | inconclusive [activator, single point] | 
Cc1ccc(CS(=O)(=O)c2ncc(Cl)c(C(=O)Nc3nc4ccc(C)cc4s3)n2)cc1 | inactive | 
CC1CCCCN1S(=O)(=O)c1ccc(C(=O)Nc2sc3c(c2C(N)=O)CC(C)(C)NC3(C)C)cc1 (stereo not given) | inactive | 
CCOc1cc(C(=S)N2CCCC2)ccc1OCc1ccccc1 | inconclusive [activator, partial curve, poor fit] | 
CC(NC(=S)Nc1ccc(OC(F)F)cc1)c1ccc(F)cc1 (stereo not given) | inconclusive [activator, single point] | 
Clc1cccc(Cc2c(-c3cccc(Br)c3)nc3ccc(Br)cn23)c1 | inactive | 
Cc1cc(C)cc(NC(=O)CSc2nnc(-c3ccccc3)n2N)c1 | inactive | 
c1ccc(CNc2nc(NCc3cccs3)nc3ccsc23)cc1 | inconclusive [activator, partial curve] | 
S=C1SCN(Cc2ccccc2)CN1Cc1ccccc1 | inconclusive [activator, partial curve, poor fit] | 
O=C(Nc1nnc(-c2ccccc2)o1)c1ccc(Cl)cc1 | inconclusive [activator, single point] | 
CC(C)C(=O)Nc1cccc(S(=O)(=O)c2cccc(NC(=O)C(C)C)c2)c1 | inconclusive [activator, partial curve] | 
Oc1ccc(Cl)cc1Cc1cc(Cl)ccc1O |  | inconclusive: -93.9% [activator]
CCc1cccc(C)c1NS(=O)(=O)c1c(C(=O)N2CCC(C)CC2)c(C)n(C)c1C | inactive | 
NC(=S)N1OC[C@@H]2COc3ccc4ccccc4c3[C@@H]21 | inconclusive [activator, single point] | 
COc1ccc(NC(=S)Nc2ccccc2OC)c(OC)c1 | inconclusive [activator, single point] | 
CCOc1ccc(NC(=O)Cn2ncc3c2-c2cc(C)ccc2OC3)cc1 | inactive | 
Cc1ccc(NCSc2ccc(Cl)cc2)cc1 | inconclusive [activator, partial curve] | 
Cc1ccnc(NS(=O)(=O)c2ccc(Cl)nc2)c1 | inactive | 
C=CCSc1nnc2c(n1)[nH]c1c(C)cccc12 | inactive | 
Cc1[nH]nc2c1C(c1ccc(-c3ccc(Cl)cc3)o1)C(C#N)=C(N)O2 (stereo not given) | inconclusive [activator, partial curve, poor fit] | 
COc1ccc([C@@H]2CC=C(C(=O)O)[C@H](c3ccc(F)cc3)N2S(=O)(=O)c2ccc(Cl)cc2)cc1 | inactive | 
CCOC(=O)C1CCCN(C(=O)c2cccc(OC(F)(F)F)c2)CC1 (stereo not given) | inactive | 
Cn1c(C(=O)N(Cc2ccccc2)Cc2ccccn2)cc2sccc21 | inconclusive [activator, partial curve, poor fit] | 
Cc1nc2c(-c3ccc(F)cc3)c(C)nn2c(C)c1CCC(=O)N1CCN(c2ccccc2)CC1 | inconclusive [activator, single point] | 

SMILES | Potency | growth rescue
O=C(CN1C(=O)C(c2ccc(F)cc2)=NC12CCCCCC2)Nc1ccccc1Cl | inconclusive [activator, full curve] | 
COCCN(Cc1nc(C(c2ccccc2)c2ccccc2)no1)C(C)C | inconclusive [activator, full curve] | 
COC(=O)c1[nH]nc2c1C(=O)N(C1CCCCC1)C2=O | inactive | 
CCc1nc2sc3c(c2c(=S)[nH]1)CC(C)(C)OC3 | inconclusive [activator, partial curve, poor fit] | 
Cc1ccc(Nc2nc(CSc3nnnn3C)cs2)cc1 | inactive | 
Cc1cc(N)n(-c2ccc(S(=O)(=O)c3ccc(C(C)C)cc3)cc2)n1 | inconclusive [activator, partial curve] | 
O=C1CC(SC2=NCCS2)C(=O)N1c1cccc(Cl)c1Cl (stereo not given) | inconclusive [activator, partial curve, poor fit] | 
CC1Cc2ccccc2N1C(=S)NC1CCCC1 (stereo not given) | active: 12.6 µM | 
COc1ccc(/C=N/Nc2ncnc3sc4c(c23)CCCC4)cc1O | inconclusive [activator, single point] | 
CC(Sc1nc2ccccc2c(=O)n1C)C(=O)NC1CCCCC1C (stereo not given) | inconclusive [activator, single point] | 
C/C(=N\N=C1\NC(=O)C(Cc2ccccc2)S1)c1ccccc1 (stereo not given) | inconclusive [activator, single point] | 
Cc1ccc(C(O)P(=O)(OCCC(C)C)c2ccc(N(C)C)cc2)cc1 (stereo not given) | inconclusive [activator, partial curve, poor fit] | 
CCOC(=O)N1CC(C)N(C(=S)Nc2ccccc2)CC1C (stereo not given) | inconclusive [activator, full curve] | 
CCOc1ccc(NC(=O)CN2C(=O)C(c3ccc(Cl)cc3)=NC2(C)C)cc1 | inactive | 
NC(=S)Cc1nc(-c2ccc(Cl)cc2)cs1 | active: 6.31 µM | 
Cc1cccc([C@@H]2[C@@H]3C(=O)N(Cc4ccccc4)C(=O)[C@@H]3[C@]3(Cc4ccc(Cl)cc4)C(=O)N(c4cccc(Br)c4)C(=O)N23)c1 | inactive | 
COc1ccc(C2(C(=O)NCCc3ccccc3)CCCC2)cc1 | inconclusive [activator, partial curve, poor fit] | 
CC(C)c1nc(Cl)c(C#N)c2c1CSC(C)(C)C2 | inconclusive [activator, partial curve] | 
COc1ccc(Cl)cc1C(=O)Nc1ccc2nc(Nc3cccc(Cl)c3)cc(C)c2c1 | inconclusive [activator, single point] | 
COc1ccc(NC(=O)c2cc(C)cc(C)c2)cc1S(=O)(=O)N1CCCCC1 | inconclusive [activator, partial curve] | 
O=C(Cn1cnc2ccccc2c1=O)N1CCN(Cc2ccc3c(c2)OCO3)CC1 | inactive | 
COC(=O)N1C(=O)[C@@](c2ccccc2)(C(C)C)N1C(=O)OC | inactive | 
